According to PubChem BioAssay AID1468 (National Center for Advancing Translational Sciences (NCATS), 2008):
About 1,100 (0.39%) of roughly 280,000 compounds were called active. Inconclusive means that the source gave no clear call. Such entries were picked first, then a sample of the others. The call rests on the fitted dose curve; in most records, active means well fitted inhibition curve with a large enough effect; inconclusive means small, poorly fitted or top-dose-only effect, or effect the other way; inactive means flat fitted curve, though single readings scatter. Potencies of inconclusive entries are left out as doubtful fits.
Further: nearly all actives have a fitted effect of over 55% in size.
On the % scale 0 is the no-effect control and ±100 the full control effect; potency means the concentration at half of the fitted maximal effect; tags describe the fitted curve by direction and shape.

What follows are molecules tested against Microtubule-associated protein tau (Homo sapiens) (UniProt P10636) (assay: qHTS for Inhibitors of Tau Fibril Formation, Fluorescence Polarization). Settings: K18 P301L tau heparin fibrillization, Alexa594 FP, 6 h; series mostly up to 57.7 µM.
UniProt P10636, sequence (P10636 whole entry, looked up): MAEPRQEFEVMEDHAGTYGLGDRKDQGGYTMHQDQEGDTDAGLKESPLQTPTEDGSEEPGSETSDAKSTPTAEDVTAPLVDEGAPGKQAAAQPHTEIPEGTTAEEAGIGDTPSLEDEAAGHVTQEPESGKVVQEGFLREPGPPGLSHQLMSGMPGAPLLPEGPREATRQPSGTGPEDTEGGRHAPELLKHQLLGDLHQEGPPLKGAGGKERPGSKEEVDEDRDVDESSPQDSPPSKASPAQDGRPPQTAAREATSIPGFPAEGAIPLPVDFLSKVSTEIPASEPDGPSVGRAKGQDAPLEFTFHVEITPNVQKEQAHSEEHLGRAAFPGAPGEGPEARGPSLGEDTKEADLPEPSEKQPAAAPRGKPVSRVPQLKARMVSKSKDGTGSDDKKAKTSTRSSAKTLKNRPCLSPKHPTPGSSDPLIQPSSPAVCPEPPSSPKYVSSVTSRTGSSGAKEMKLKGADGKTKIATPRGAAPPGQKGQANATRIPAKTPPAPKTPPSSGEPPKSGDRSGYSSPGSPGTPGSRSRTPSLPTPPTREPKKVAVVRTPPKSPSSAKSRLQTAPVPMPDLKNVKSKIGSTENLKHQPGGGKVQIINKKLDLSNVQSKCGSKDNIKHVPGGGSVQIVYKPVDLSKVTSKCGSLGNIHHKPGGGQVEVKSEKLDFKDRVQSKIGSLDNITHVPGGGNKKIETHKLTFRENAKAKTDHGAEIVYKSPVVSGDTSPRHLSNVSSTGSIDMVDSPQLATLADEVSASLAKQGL
In short: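 Recombinant K18 P301L […], labeled with Alexa 594 at 0.24 uM over 15 uM unlabeled; heparin inducer 20 uM final; 37 C, 6 hr; FP endpoint.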
`Cc1onc(-c2ccccc2)c1CNC(=O)Nc1cccc(Cl)c1` was tested, and the Potency was inconclusive [inhibitor, partial curve, poor fit]. For `COc1ccc2c(c1)C(c1ccccc1)=NNC(c1ccco1)=N2`, the Potency was inconclusive [activator, partial curve]. In the case of `O=C(CSCc1ccc(Cl)cc1)Nc1ccc(S(=O)(=O)N2CCOCC2)cc1`, the Potency was inconclusive [inhibitor, partial curve, poor fit]. For `CC(C)Cc1ccc(S(=O)(=O)NCc2nc3cccnc3n2Cc2ccccc2)cc1`, the Potency was “inactive”. In the case of `COc1ccc(/C=N\NS(=O)(=O)c2ccc(Br)cc2)cc1COc1ccccc1[N+](=O)[O-]`, the Potency was inconclusive [inhibitor, partial curve]. For `C=CCn1c(O)c(CN2CCOCC2)c(C)c(C#N)c1=O`, the Potency was inconclusive [inhibitor, partial curve]. `O=C(COC(=O)CCc1nc2ccccc2s1)Nc1nc(-c2ccccc2)cs1` was tested, and the Potency was inconclusive [inhibitor, partial curve]. `COc1ccc(NC(=O)Nc2cc3oc4ccccc4c3cc2OC)cc1` was tested, and the Potency was inconclusive [activator, single point]. In the case of `O=[N+]([O-])c1cc([N+](=O)[O-])c2c(=Nc3ccccc3)n(-c3ccccc3)n(O)c2c1`, the Potency was inconclusive [inhibitor, single point]. `O=C(NCc1ccco1)c1ccc2ccccc2c1` was tested, and the Potency was inconclusive [inhibitor, full curve, poor fit]. For `Cc1ccc(N(C)C(CNS(=O)(=O)c2ccccc2)c2ccccc2)cc1` (centres undefined), the Potency was “inactive”. For `Cc1ccc(CNC(=O)C2CCC(CNS(=O)(=O)c3ccc(C)cc3)CC2)cc1` (centres undefined), the Potency was “inactive”. For `CCCCN(C)S(=O)(=O)c1ccc(NC2=NS(=O)(=O)c3ccccc32)cc1`, the Potency was inconclusive [inhibitor, full curve]. In the case of `Cc1ccc(NC(=O)Cn2cc(C(=O)c3ccco3)c3ccccc32)cc1C`, the Potency was inconclusive [inhibitor, partial curve]. In the case of `COCCNC(=O)Nc1ccc2nc(-c3cccs3)c(-c3cccs3)nc2c1`, the Potency was active: 15.8 µM. With `Cc1onc(-c2c(Cl)cccc2Cl)c1C(=O)c1ccccc1` the Potency was inconclusive [inhibitor, single point]. In the case of `O=C(Nc1sc2c(c1C(=O)O)CCCC2)c1cccs1`, the Potency was “inactive”. For `CCOC(=O)c1c(CN2CCN(C)CC2)n(C)c2cc(Br)c(OC)cc12`, the Potency was “inactive”. In the case of `O=C(C1CCC(Cn2c(=O)c3sccc3n(Cc3cccc(F)c3)c2=O)CC1)N1CCOCC1` (centres undefined), the Potency was “inactive”. In the case of `CCCCCCNC(=O)c1c[nH]c2ccc(S(=O)(=O)N(C)c3ccc(C(C)C)cc3)cc2c1=O`, the Potency was inconclusive [inhibitor, partial curve]. In the case of `COc1ccc(N2CCN(C3(c4ccccc4)C(=O)c4ccccc4C3=O)CC2)cc1`, the Potency was “inactive”. In the case of `NS(=O)(=O)c1ccc(N=Nc2c(-c3ccccc3)[nH]n(-c3nc(-c4ccccc4)cs3)c2=O)cc1`, the Potency was inconclusive [activator, partial curve, poor fit]. For `O=C(CCCSc1nc2ccccc2[nH]1)NC(c1ccccc1)c1ccccc1`, the Potency was inconclusive [inhibitor, full curve, poor fit]. For `COC(=O)c1ccc(Nc2nc(-c3ccccc3Cl)nc3ccccc23)cc1`, the Potency was active: 12.6 µM. `Clc1cccc(-c2nc3ccccn3c2Nc2ccc3c(c2)OCCO3)c1` was tested, and the Potency was inconclusive [activator, partial curve]. In the case of `CCOc1ccccc1C(=O)N/N=C/c1c[nH]c2ccccc12`, the Potency was “inactive”. In the case of `COc1cccc(OC(=O)CSc2nnc(-c3cccs3)o2)c1`, the Potency was “inactive”. In the case of `COc1ccccc1C(=O)Nc1cccc(N(C)S(C)(=O)=O)c1`, the Potency was “inactive”. In the case of `CN(c1ccc(OCC(=O)OCC(=O)Nc2ccc(F)cc2)cc1)S(=O)(=O)c1ccc(Cl)cc1`, the Potency was inconclusive [inhibitor, partial curve]. `CCOC(=O)c1c(NC(=O)/C=C/c2ccc(OCC)cc2)sc(C(C)=O)c1C` was tested, and the Potency was “inactive”. With `Cc1nn(-c2ccccc2)c2sc(C(=O)Nc3cccc(Cl)c3)cc12` the Potency was active: 3.16 µM. In the case of `OC(CNCC1CCCO1)Cn1c2ccc(Cl)cc2c2cc(Cl)ccc21` (centres undefined), the Potency was inconclusive [inhibitor, partial curve]. With `CC(Sc1nc(-c2ccccc2)cs1)C(=O)Nc1ccc(Cl)cn1` (centres undefined) the Potency was “inactive”. `Cc1ccc(S(=O)(=O)N2CCc3nc(COc4ccccc4)c4c(c3C2)CO[C@@H](C)C4)cc1` was tested, and the activity, negative = inhibition was inactive: -2.05% [at 11.6 µM]. With `O=C(Nc1nc(-c2ccccc2)cs1)c1ccc(N2CCOCC2)c([N+](=O)[O-])c1` the Potency was “inactive”. `Fc1ccccc1NC(=S)Nc1ccc(Br)cc1` was tested, and the Potency was inconclusive [inhibitor, single point]. `CCN(c1ccccc1)S(=O)(=O)c1ccc(Cl)c(C(=O)NCCc2ccc(OC)cc2)c1` was tested, and the Potency was inconclusive [activator, single point]. With `COc1cc(C(=O)Nc2ccc(Cl)c(C(F)(F)F)c2)cc(OC)c1OC` the Potency was inconclusive [inhibitor, partial curve]. `O=C(Cn1c(/C=C/c2ccccc2)nc2ccccc21)Nc1ccc(F)cc1` was tested, and the Potency was inconclusive [inhibitor, partial curve, poor fit]. In the case of `CNC(=O)CCCN1C(=O)CCn2nc(-c3cn(C)c4ccccc34)cc21`, the Potency was “inactive”. In the case of `CCOC(=O)C/C(C)=N\Nc1nc(-c2ccccc2)cs1`, the Potency was inconclusive [inhibitor, single point]. For `CCc1ccc(NC(=O)C2CCCN2S(=O)(=O)c2ccc3nc(-c4ccccc4)[nH]c3c2)cc1` (centres undefined), the Potency was inconclusive [inhibitor, partial curve]. For `CC(=O)c1ccc(NC(=O)CSc2nnc(-c3ccco3)c(-c3ccco3)n2)cc1`, the Potency was active: 8.91 µM. `C=CCc1ccccc1OCc1nc2ccc(C)cc2[nH]1` was tested, and the Potency was “inactive”. With `CCOC(=O)c1c(NC(=O)CSc2nc(-c3ccc(OC)cc3)cc(C(F)(F)F)n2)sc(C)c1C` the Potency was inconclusive [inhibitor, partial curve, poor fit]. `CC(C)Nc1nc2c(S(=O)(=O)c3cccc(Cl)c3)nnn2c2ccsc12` was tested, and the Potency was inconclusive [inhibitor, full curve, poor fit]. `S=c1[nH]nc(CNc2cccc(Cl)c2)o1` was tested, and the Potency was “inactive”. In the case of `CC(C)CCNC(=O)c1ccc2nc(CCc3ccccc3)oc2c1`, the Potency was “inactive”. For `CCOC(=O)c1cc(C#N)c(Nc2ccc(C)cc2)nc1C(F)(F)F`, the Potency was inconclusive [inhibitor, single point]. `CCOC(=O)C(=O)c1csc(NC(=O)COc2ccc(N(C)S(=O)(=O)c3ccc(F)cc3)cc2)n1` was tested, and the Potency was inconclusive [inhibitor, single point]. In the case of `COc1cc(Br)c(Br)c(Br)c1N`, the Potency was inconclusive [inhibitor, single point]. For `CN(C)CCOc1cc(Cl)cc(Cl)c1`, the Potency was inconclusive [inhibitor, single point]. For `O=C1CSC(=S)N1/N=C/c1cccnc1`, the Potency was inconclusive [inhibitor, partial curve]. For `O=C(CSc1nc2c(oc3ccccc32)c(=O)n1Cc1ccco1)Nc1cccc(Cl)c1`, the Potency was inconclusive [inhibitor, partial curve]. In the case of `COC(=O)c1[nH]c2cc(C)ccc2c1NC(=O)CN1CCCc2ccccc21`, the Potency was inconclusive [activator, full curve]. For `Cc1cccc(NC(=O)C2SC(=Nc3c(C)cccc3C)C(C(=O)N3CCOCC3)=C2N)c1` (centres undefined), the Potency was inconclusive [inhibitor, partial curve]. `CC1(C)NC(=O)N(CC(=O)OCC(=O)Nc2cc(S(=O)(=O)N3CCCCCC3)ccc2Cl)C1=O` was tested, and the Potency was “inactive”. For `Cc1cc(-c2csc(NC(=O)c3ccc(=O)n(C)n3)n2)c(C)n1CC1CCCO1` (centres undefined), the Potency was “inactive”. With `c1cncc(CNc2ncncc2-c2ccc3c(c2)OCO3)c1` the Potency was “inactive”. `CCNC(=O)COc1ccc(-c2ccccc2)cc1` was tested, and the Potency was “inactive”. With `COC(=O)C1=C(C)N(CCc2c[nH]c3ccc(OC)cc23)C(=O)C1` the Potency was inconclusive [inhibitor, single point]. With `COc1ccccc1C1C(C(N)=O)=C(C)Nc2ncnn21` (centres undefined) the Potency was inconclusive [inhibitor, single point]. For `Cc1nc(-c2ccncc2)sc1C(=O)Nc1ccc(Cl)cc1`, the Potency was inconclusive [inhibitor, partial curve]. For `CCOc1ccc(/C=N/NC(=O)c2cc(-c3cccn3C)n[nH]2)cc1`, the Potency was inconclusive [inhibitor, single point]. `O=C(COC(=O)c1cccc(S(=O)(=O)N2CCc3ccccc32)c1)NC1CCS(=O)(=O)C1` (centres undefined) was tested, and the Potency was inconclusive [inhibitor, single point]. In the case of `CCN1C(=O)c2cccc3c(S(=O)(=O)N(C(=O)c4ccncc4)c4ccc(OC)cc4)ccc1c23`, the Potency was inconclusive [activator, single point]. `CC1(C)C2CCC1(C)C(OC(=O)c1ccc(O)cc1)C2` (centres undefined) was tested, and the Potency was inconclusive [inhibitor, partial curve]. `CCOC(=O)c1ccccc1NC(=O)Cn1c(-c2nonc2N)nc2ccccc21` was tested, and the Potency was inconclusive [inhibitor, partial curve, poor fit]. `O=C(NC(=C(Cl)Cl)S(=O)(=O)c1ccc(Cl)cc1)c1ccccc1` was tested, and the Potency was inconclusive [inhibitor, single point].
